Experimental data as given in the supplement of paper PMC4967469.
By IC50 is meant the dose at which the fit gives 50% viability; fits outside the tested doses are given as limits. AUC, from the same fit, is the share of area under the viability curve across the 256-fold dose range; the more sensitive the line, the further below 1. For part of these data: An inferred top dose comes from the curve model; the source does not state it.

Columns and labels:
Assay in all cases: Viability of human cancer cell lines after 72 h of drug (GDSC screen)
MS-275 = compound: Nc1ccccc1NC(=O)c1ccc(CNC(=O)OCc2cccnc2)cc1 [MS-275]; details: top dose 5 µM; top dose inferred
Protocol: (§1)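 Human cancer cell lines in 384-well plates, medium with 10% serum, drug for 72 h over a 256-fold dose range (nine 2-fold or five 4-fold steps up to the top dose). Adherent lines were fixed and stained with the nucleic acid dye Syto60, suspension lines read with resazurin; signal relative to control wells, capped at 0 and 100%. One two-parameter sigmoid per drug and line, fitted in a mixed model over all curves with the slope shared within a line.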

PF-4708671 = compound: CCc1cncnc1N1CCN(Cc2nc3ccc(C(F)(F)F)cc3[nH]2)CC1 [PF-4708671]; details: top dose 10 µM; top dose inferred
Protocol: as §1

Trametinib = compound: CC(=O)Nc1cccc(-n2c(=O)n(C3CC3)c(=O)c3c(Nc4ccc(I)cc4F)n(C)c(=O)c(C)c32)c1 [Trametinib]; details: top dose 1 µM
Protocol: as §1

KIN001-244 = compound: O=C(NC(COc1ccc2[nH]c(=O)[nH]c2c1)c1ccccc1)c1cccn(Cc2ccc(F)c(F)c2)c1=O [KIN001-244]; details: top dose 20 µM; top dose inferred
Protocol: as §1

AV-951 = compound: COc1cc2nccc(Oc3ccc(NC(=O)Nc4cc(C)on4)c(Cl)c3)c2cc1OC [AV-951]; details: top dose 0.128 µM; top dose inferred
Protocol: as §1

HG-6-64-1 = compound: CCN1CCN(Cc2ccc(NC(=O)c3ccc(C)c(/C=C/c4cnc5[nH]ccc5c4OC)c3)cc2C(F)(F)F)CC1 [HG-6-64-1]; details: top dose 5.12 µM; top dose inferred
Protocol: as §1

I-BET-762 = compound: CCNC(=O)C[C@@H]1N=C(c2ccc(Cl)cc2)c2cc(OC)ccc2-n2c(C)nnc21 [I-BET-762]; details: top dose 20 µM; top dose inferred
Protocol: as §1

Cell Line | AUC (MS-275) | IC50 (MS-275) [nM] | AUC (PF-4708671) | IC50 (PF-4708671) [nM] | AUC (Trametinib) | IC50 (Trametinib) [nM] | AUC (KIN001-244) | IC50 (KIN001-244) [nM] | AUC (AV-951) | IC50 (AV-951) [nM] | AUC (HG-6-64-1) | IC50 (HG-6-64-1) [nM] | AUC (I-BET-762) | IC50 (I-BET-762) [nM]
SU-DHL-6 (B-cell lymphoma, suspension) | 0.443 | 227 | 0.992 | > 10000 | 0.995 | > 1000 | 0.684 | 3520 | 0.995 | > 128 | 0.478 | 284 | 0.51 | 1320
SU-DHL-8 (B-cell lymphoma, suspension) | 0.383 | 152 | 0.977 | > 10000 | 0.945 | > 1000 | 0.663 | 3440 | 0.938 | > 128 | 0.803 | 2330 | 0.569 | 1900
SU-DHL-16 (B-cell lymphoma, suspension) | 0.8 | 1710 | 0.962 | > 10000 | 0.994 | > 1000 | 0.682 | 3450 | 0.978 | > 128 | 0.384 | 167 | 0.421 | 804
SUP-HD1 (Hodgkin lymphoma, suspension) | 0.707 | 1160 | 0.983 | > 10000 | 0.973 | > 1000 | 0.728 | 5350 | 0.988 | > 128 | 0.843 | 3370 | 0.848 | 13800
SUP-M2 (anaplastic large cell lymphoma, suspension) | 0.721 | 1100 | 0.977 | > 10000 | 0.984 | > 1000 | 0.871 | 11700 | 0.974 | > 128 | 0.994 | > 5120 | 0.7 | 3890
SUP-T1 (T-cell lymphoblastic leukaemia, suspension) | 0.987 | > 5000 | 0.953 | > 10000 | 0.986 | > 1000 | 0.88 | 17400 | 0.99 | > 128 | 0.476 | 277 | 0.692 | 4070
SW684 (fibrosarcoma, adherent) | 0.938 | > 5000 | 0.982 | > 10000 | 0.849 | > 1000 | 0.983 | > 20000 | 0.98 | > 128 | 0.893 | > 5120 | 0.983 | > 20000
SW872 (soft tissue, adherent) | 0.776 | 1800 | 0.939 | > 10000 | 0.21 | 9.76 | 0.935 | > 20000 | 0.989 | > 128 | 0.586 | 537 | 0.792 | 8100
SW954 (urogenital system, adherent) | 0.611 | 634 | 0.973 | > 10000 | 0.308 | 18 | 0.745 | 6360 | 0.979 | > 128 | 0.628 | 725 | 0.897 | > 20000
SW962 (urogenital system, adherent) | 0.818 | 3750 | 0.971 | > 10000 | 0.617 | 142 | 0.795 | 11900 | 0.979 | > 128 | 0.92 | > 5120 | 0.726 | 6500
TE-1 (oesophagus, adherent) | 0.55 | 444 | 0.919 | > 10000 | 0.744 | 383 | 0.971 | > 20000 | 0.981 | > 128 | 0.909 | > 5120 | 0.981 | > 20000
TE-5 (oesophagus, adherent) | 0.786 | 2510 | 0.972 | > 10000 | 0.601 | 124 | 0.938 | > 20000 | 0.984 | > 128 | 0.841 | 4360 | 0.96 | > 20000
TE-6 (oesophagus, adherent) | 0.944 | > 5000 | 0.927 | > 10000 | 0.953 | > 1000 | 0.869 | > 20000 | 0.986 | > 128 | 0.906 | > 5120 | 0.918 | > 20000
TE-8 (oesophagus, adherent) | 0.552 | 437 | 0.873 | > 10000 | 0.474 | 52.7 | 0.887 | > 20000 | 0.985 | > 128 | 0.858 | 4690 | 0.977 | > 20000
TE-9 (oesophagus, adherent) | 0.761 |  | 0.916 | > 10000 | 0.935 | > 1000 | 0.906 | > 20000 | 0.981 | > 128 | 0.565 | 485 | 0.975 | > 20000
TE-10 (oesophagus, adherent) | 0.881 | > 5000 | 0.948 | > 10000 | 0.801 | 477 | 0.889 | > 20000 | 0.987 | > 128 | 0.749 | 1630 | 0.973 | > 20000

Cell Line | AUC (MS-275) | IC50 (MS-275) [nM] | AUC (PF-4708671) | IC50 (PF-4708671) [nM] | AUC (Trametinib) | IC50 (Trametinib) [nM] | AUC (KIN001-244) | IC50 (KIN001-244) [nM] | AUC (AV-951) | IC50 (AV-951) [nM] | AUC (HG-6-64-1) | IC50 (HG-6-64-1) [nM] | AUC (I-BET-762) | IC50 (I-BET-762) [nM]
TE-12 (oesophagus, suspension) | 0.827 | 4000 | 0.953 | > 10000 | 0.586 | 113 | 0.848 | > 20000 | 0.981 | > 128 | 0.737 | 1800 | 0.978 | > 20000
TE-15 (oesophagus, suspension) | 0.875 | > 5000 | 0.893 | > 10000 | 0.865 | > 1000 | 0.756 | 7630 | 0.984 | > 128 | 0.56 | 476 | 0.883 | > 20000
TGW (neuroblastoma, adherent) | 0.71 | 1100 | 0.99 | > 10000 | 0.978 | > 1000 | 0.835 | 10700 | 0.991 | > 128 | 0.955 | > 5120 | 0.846 | 11700
TK10 (kidney, adherent) | 0.733 | 1690 | 0.963 | > 10000 | 0.553 | 90.1 | 0.761 | 8490 | 0.979 | > 128 | 0.901 | > 5120 | 0.981 | > 20000
TK (B-cell lymphoma, suspension) | 0.83 | 2760 | 0.922 | > 10000 | 0.979 | > 1000 | 0.787 | 7890 | 0.979 | > 128 | 0.855 | 3540 | 0.922 | > 20000
TUR (B-cell lymphoma, suspension) | 0.958 | > 5000 | 0.945 | > 10000 | 0.897 | > 1000 | 0.803 | 9060 | 0.984 | > 128 | 0.897 | > 5120 | 0.899 | > 20000
U-87-MG (glioma, adherent) | 0.793 | 2750 | 0.959 | > 10000 | 0.579 | 107 | 0.811 | 13000 | 0.975 | > 128 | 0.965 | > 5120 | 0.907 | > 20000
U-698-M (B-cell leukaemia, suspension) | 0.893 | > 5000 | 0.966 | > 10000 | 0.971 | > 1000 | 0.752 | 6650 | 0.987 | > 128 | 0.599 | 596 | 0.933 | > 20000
UACC-257 (melanoma, adherent) | 0.712 | 1450 | 0.843 | 9810 | 0.115 | < 3.91 | 0.739 | 7250 | 0.973 | > 128 | 0.833 | 4490 | 0.882 | > 20000
VA-ES-BJ (soft tissue, adherent) | 0.827 | 3270 | 0.943 | > 10000 | 0.863 | 941 | 0.907 | > 20000 | 0.985 | > 128 | 0.609 | 649 | 0.966 | > 20000
VAL (B-cell lymphoma, suspension) | 0.54 | 403 | 0.984 | > 10000 | 0.982 | > 1000 | 0.723 | 5390 | 0.975 | > 128 | 0.596 | 588 | 0.591 | 2220
VCaP (prostate, adherent) | 0.701 | 1180 | 0.987 | > 10000 | 0.986 | > 1000 | 0.741 | 6290 | 0.986 | > 128 | 0.936 | > 5120 | 0.505 | 1290
WIL2-NS (lymphoid neoplasm, suspension) | 0.414 | 191 | 0.991 | > 10000 | 0.979 | > 1000 | 0.831 | 9570 | 0.964 | > 128 | 0.729 | 1240 | 0.398 | 694
WSU-DLCL2 (B-cell lymphoma, suspension) | 0.956 | > 5000 | 0.967 | > 10000 | 0.881 | 745 | 0.945 | > 20000 | 0.99 | > 128 | 0.992 | > 5120 | 0.942 | > 20000
YT (lymphoid neoplasm, suspension) | 0.978 | > 5000 | 0.956 | > 10000 | 0.992 | > 1000 | 0.88 | 15400 | 0.99 | > 128 | 0.66 | 825 | 0.573 | 1920
no-10 (glioma, adherent) | 0.691 | 1220 | 0.976 | > 10000 | 0.854 | > 1000 | 0.894 | > 20000 | 0.979 | > 128 | 0.912 | > 5120 | 0.981 | > 20000
